This passage reports binding signal results from PMC12136788.

The chains are these.
T1: UNK ZnF1-3 (human, UniProt Q9C0B0 31-174)
T1 sequence: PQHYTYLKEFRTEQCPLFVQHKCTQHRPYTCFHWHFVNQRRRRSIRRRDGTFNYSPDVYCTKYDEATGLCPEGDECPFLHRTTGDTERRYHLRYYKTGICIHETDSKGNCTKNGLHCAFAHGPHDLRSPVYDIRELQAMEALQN

B1: chr1:135503150:135503151:-_ENSMUSG00000090553_ENSMUST00000166915|mus_mus|FALSE|FALSE (ssRNA)
RNA: GGGAGUUCUACAGUCCGACGAUCUUCUGCAUCAUCUAAUACGAGGUUCAUGUACUCAUCAAAGCCAAUAAUACAACCUUCUAUCCGCAUAUUCACUUGUUCAUACAGCCACACCUGAAUUCGAGAUCUAUUUUGCAAGUAUCUCAACAGAGGAUUGAGCAUCA
B2: chr1:118462952:118462953:-_ENSG00000196505_ENST00000369442|hu_hu|FALSE|FALSE (ssRNA)
RNA: GGGAGUUCUACAGUCCGACGAUCGGCAUGAGUCACCCCAGCUUGGUAGUGUAUCCACAUCCACAAACUGGGAAGGUGCACCUAAGGGAUCCAUGGAAUGGGAACUUUGAUUUGUCUUUUCCCAAAAUCCUCAGCAAUUCAAUACAACAGAGGAUUGAGCAUCA
B3: 29207450_29207570_675_CDS_ENSG00000120875_ENST00000240100|human|control|control (ssRNA)
RNA: GGGAGUUCUACAGUCCGACGAUCGGCGCGCGGGCUGCGCUCGUCGUAGACGAUGACCGCCGAGUAGAGGCCGGAGCGCAAGCGGGCGCGUACCUCCUCCUCGGCGGGCAGGAUCUGCUCCAGGCUCACGGAGCCCUUAGCCCGCAACAGAGGAUUGAGCAUCA
B4: chr17:13104604:13104605:-_ENSMUSG00000057388_ENSMUST00000079121|mus_mus|FALSE|FALSE (ssRNA)
RNA: GGGAGUUCUACAGUCCGACGAUCAUAGAUUCUUCGAGGCUCCCGAAGCAUCACGCCACUUUCUGUCAUGGCAUUUUGUAAACGUUUUAUCGAGUCUGAGGACGCCUCCCACGGGGUGGGCUGGUAGACCAUGAAGUUGAUUCCCAACAGAGGAUUGAGCAUCA
B5: chr16:3748964:3748965:+_ENSMUSG00000022529_ENSMUST00000023176|mus_mus|motif|central (ssRNA)
RNA: GGGAGUUCUACAGUCCGACGAUCUUCACCACACUCUACAUCCAUACACAGCUUUUCUGCUGCAUGUAUUCUCUGGUGCCGGAUUAGGUUUGAGUUAUUAGAAAAGUUCUUGCCACACAAGGCACACAAAUGGAGUUUCUUGGGCAACAGAGGAUUGAGCAUCA
B6: chr19:42880530:42880531:+_ENSG00000105429_ENST00000334370|hu_mus|FALSE|FALSE (ssRNA)
RNA: GGGAGUUCUACAGUCCGACGAUCGCUAGGAAAGGCUCAGAGCGGCGGAAGGCAGGAGGAGGGAGCCCAGCUGGCUUCCAUGCAGGUGCUGGGCCUGCAGGGUCUGGAGGGAAGCAGACAGUGACCUUGGCAAAGGGGCGGCUGCAACAGAGGAUUGAGCAUCA
B7: 43810863_43810983_1618_3pUTR_ENSMUSG00000040018_ENSMUST00000045562|mouse|control|control (ssRNA)
RNA: GGGAGUUCUACAGUCCGACGAUCUCGAGUAGCUCCACAGGGGCACGUGUUCCUGAAUCUGUCACUGUCACCAGAAGCCUGACUAGUGGGCAGGACAUAGAAACCAAGAUCUAAGAAGUCAGCCCGCCUCUUAUGAAGCAGCAACAACAGAGGAUUGAGCAUCA
B8: chr7:116544294:116544295:+_ENSG00000198898_ENST00000458284|hu_mus|FALSE|FALSE (ssRNA)
RNA: GGGAGUUCUACAGUCCGACGAUCUGCUUCGUAGGGCCUUGGAUCAGUUGCUUCCUUUCUUAAAUGAUCAAAUUUGAAACAGAUUCUGUUUUUUGGAUCCAAAAAUUUUCCAUUUCCCAAGUCUCCAUGUUCUGUUAUCAAAACCAACAGAGGAUUGAGCAUCA
B9: 71553991_71554111_1996_CDS_ENSMUSG00000053470_ENSMUST00000065509|mouse|control|control (ssRNA)
RNA: GGGAGUUCUACAGUCCGACGAUCAAUAUUGGCCAGGAUAUAUUUUGCUGUGUCCAAAUCAGUCCCCACAACAUUUUUGGUCAAAGGCAGCCACAAGCCAAUCGCUUCACUGUCAUACUUGUUUGGUGUUAAGAAGCCUUCUACCAACAGAGGAUUGAGCAUCA
B10: chr17:65740002:65740003:+_ENSG00000130935_ENST00000581375|hu_hu|hu_hu_hu_mus_False|8_88 (ssRNA)
RNA: GGGAGUUCUACAGUCCGACGAUCAACAAAUCUUUCUUCCCUGGACGCAAGAGUUCAUUCAUAUUAAAAAAAAUAUAUAUCCAUCAAGUUAGGUGUGGUGGCCACACCUUUACUCCCAGCACUUUGGGAAUAUAAUCUCUGAGUCAACAGAGGAUUGAGCAUCA
B11: 115002338_115004872_336_CDS_ENSG00000130177_ENST00000356221|human|control|control (ssRNA)
RNA: GGGAGUUCUACAGUCCGACGAUCUUCCAUGUCAAGAACAUCAAGGGCCUGCUGGUGCUCUUUUGCAGCAUAAUGGCACCUAGCUGCAAGGUAACGACAUGCUUCAUACAAUUUGUCCAGUUUUCGUGACCGAAGUGCAUGGGCCAACAGAGGAUUGAGCAUCA
B12: chr16:94664741:94664742:+_ENSMUSG00000040785_ENSMUST00000117648|mus_hu|mus_mus_mus_hu_False|8_88 (ssRNA)
RNA: GGGAGUUCUACAGUCCGACGAUCUGGUACUGAUCUUGGUAGCUGAUACUCAGAAGAAAGGCUGGCCAAGGGUGUAUAUAUGCUGGUGUACUGGGGCAAACCUGGUAACACGUUUAUGUAUGCUGGCCGCUGGGUGAUGAUAUCCAACAGAGGAUUGAGCAUCA
B13: chr2:198351390:198351391:-_ENSG00000144381_ENST00000345042|hu_hu|hu_hu_hu_mus_False|28_38 (ssRNA)
RNA: GGGAGUUCUACAGUCCGACGAUCUCAUUCCCACCCUCCACAGAAAGGCUGCUUCUGAACUCUCAUGUGGUGACACAGCGCUACAGUCCUGAUGCUCACAGAAUAGUAGUAAAAAUGCAGUGAUUUAAGUUGAAAGCAGGACACCAACAGAGGAUUGAGCAUCA
B14: chr22:19452774:19452775:-_ENSG00000070010_ENST00000399523|hu_hu|hu_hu_hu_mus_False|1_78 (ssRNA)
RNA: GGGAGUUCUACAGUCCGACGAUCCUUCUCAUUGUAGUUGAUAGCAAUCACAUCUCCGGUGGUCAGACAGGCGAAGUUUCUCAAUGCAUUUUCUAAUACCGCUUUAGGGUUGGUAAUAUCCAGGAAGUCUGGGCUCUGAGGUUGCAACAGAGGAUUGAGCAUCA

The list shows a part of the results.

For the experiment, the target named is T1, UNK ZnF1-3. As to the kind of experiment: nsRBNS (natural sequence RNA bind-n-seq); RBNS binding buffer (assumed for nsRBNS): 25 mM Tris pH 7.5, 150 mM KCl, 3 mM MgCl2, 0.01% Triton X-100, 500 ug/ml BSA, 20 U/ml SUPERase-In, 4 C; UNK is unkempt and MSI1 is Musashi-1; names of the RNAs are library labels; protein concentration not given here; high values mean tight binding.
The molecule B1 displayed a binding signal of 0.92 enrichment R.
To B2 belongs 0.72 enrichment R; to B3, 0.591 enrichment R; to B4, 1.04 enrichment R.
To B5 belongs 0.884 enrichment R; to B6, 1.83 enrichment R; to B7, 0.905 enrichment R.
To B8 belongs 0.848 enrichment R; to B9, 0.952 enrichment R.
B10 displayed a binding signal of 0.968 enrichment R.
To B11 belongs 0.887 enrichment R; to B12, 1.07 enrichment R; to B13, 1.71 enrichment R.
To B14 belongs 0.917 enrichment R.
